The full ranking holds about 33,000 sequences; the median of “E-score (-0.5 to 0.5)” is about -0.036, and the highest 2% start at about 0.37. The list shows a part of the results.
Biological target: T1, Yer064c (UniProt P40041)
T1 sequence: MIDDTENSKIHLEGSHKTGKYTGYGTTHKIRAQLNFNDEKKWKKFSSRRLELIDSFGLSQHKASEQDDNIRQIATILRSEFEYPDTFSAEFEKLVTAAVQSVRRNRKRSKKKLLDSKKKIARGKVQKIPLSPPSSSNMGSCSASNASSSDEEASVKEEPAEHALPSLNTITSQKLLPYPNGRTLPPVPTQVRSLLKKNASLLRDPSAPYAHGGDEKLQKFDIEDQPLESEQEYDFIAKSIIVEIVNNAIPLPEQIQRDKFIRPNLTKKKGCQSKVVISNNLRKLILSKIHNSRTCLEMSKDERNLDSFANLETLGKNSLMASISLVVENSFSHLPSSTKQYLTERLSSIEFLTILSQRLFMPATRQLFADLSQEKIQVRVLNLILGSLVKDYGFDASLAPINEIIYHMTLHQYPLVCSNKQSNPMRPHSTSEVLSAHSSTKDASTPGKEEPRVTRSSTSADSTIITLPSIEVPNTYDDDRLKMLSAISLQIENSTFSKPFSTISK
Assay: PBM E-score (8-mer binding enrichment) (E-score (-0.5 to 0.5)); higher = stronger / more preferred TF binding; most listed sequences are background and not binding sites
Details: protein concentration: 200 nM; construct: GST-full length
Method in brief: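 Full-length yeast transcription factors or their DNA-binding domains, GST-tagged and expressed with PURExpress, were applied at about 100-200 nM to universal all-10-mer Agilent arrays. These arrays had been made double-stranded by primer extension on fresh or once-stripped slides. Detection used fluorescent anti-GST, normalisation used masliner, and E-scores for ungapped eight-base words pooled with reverse complements came from the Universal PBM Analysis Suite.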

Row | Sequence | PBM E-score
1 | CTGATCTC | 0.00456
2 | CAAATCTC | 0.0434
3 | GCACAACC | -0.239
4 | ATTATGGA | 0.0375
5 | AAATGGGT | 0.144
6 | AGTTTCGG | -0.0508
7 | GAAACGCC | -0.172
8 | TGCAGCAA | -0.158
9 | GAGGCATC | -0.198
10 | AGACAGGA | 0.0826
11 | CCGGGGGA | -0.14
12 | ATGCAATG | 0.0179
13 | ATCGCTGC | -0.0877
14 | CTTAAGAA | 0.155
15 | AAACGGAC | -0.106
16 | GAGCCTGC | -0.24
17 | GCGTTGGA | -0.18
18 | ATGAGCCC | -0.00355
19 | CCAGCCTC | -0.117
20 | CATTATAC | 0.0626
21 | CTCATTCA | 0.0925
22 | TCATGTCA | 0.186

Row | Sequence | PBM E-score
23 | CCAAGTCC | -0.198
24 | AAGGCGCC | -0.187
25 | TAAAGCCA | 0.149
26 | CTGGGATC | -0.29
27 | GCCCGGAA | -0.21
28 | CAGAATAG | -0.116
29 | ACGTCCTG | -0.348
30 | ACAAGGCT | -0.128
31 | CTAACATC | -0.0438
32 | TACTCCGA | 0.0904
33 | CCACCGCG | -0.114
34 | TACGTCGA | 0.0248
35 | AATCGTCC | 0.171
36 | CCAGTGAG | 0.0497
37 | CCTGTCCA | -0.253
38 | CGATGCCC | -0.221
39 | CGGTGCGA | -0.0551
40 | AATTGGAA | -0.036
41 | ATTGGAGA | -0.103
42 | CCAGACGG | -0.17
43 | ACAACTCA | 0.143
44 | AGGCTATC | -0.0226

Row | Sequence | PBM E-score
45 | AATTCGAT | 0.0314
46 | GTACTCAA | 0.314
47 | ACGTGGGA | -0.00359
48 | AGAGGTTA | 0.0375
49 | AATCACCG | 0.42
50 | TGCCGAAA | -0.144
51 | CCGCTATA | -0.157
52 | AATAGGAA | 0.0751
53 | GTAGCCAA | -0.0169
54 | CGCTGGCC | -0.279
55 | CCAGAGAG | -0.025
56 | CGAGAGTA | 0.0908
57 | AGCAGCTG | 0.0489
58 | AGTATAAG | 0.062
59 | CGACAGTC | 0.18
60 | GTAGGCGA | -0.0574
61 | AAACCGTT | -0.267
62 | ATAAGATA | -0.0333
63 | CAGTGTGC | -0.179
64 | ACACTCCG | -0.136
65 | CAGAGTGA | 0.0239
66 | AGGATGGC | 0.014

Row | Sequence | PBM E-score
67 | CTCATTGA | 0.167
68 | AAGACCAC | -0.0481
69 | AACTCGAT | 0.103
70 | CGATAACG | -0.134
71 | CATGCATC | 0.133
72 | ACCAAAAT | -0.0446
73 | CTCAAGTA | -0.0168
74 | ACCCCCCC | -0.237
75 | ACCCCGGC | -0.128
76 | CAGATACA | 0.0747
77 | AGGCCAGC | -0.279
78 | GATAACGC | -0.24
79 | CCTGCGGA | -0.0576
80 | TAGGTACA | -0.0989
81 | CAACATCA | 0.062
82 | CGCTGCCA | -0.121
83 | AGCAGACG | -0.223
84 | ACGTTTAT | 0.00313
85 | CCACGATC | 0.0277
86 | GTCTTTGA | 0.116

Reference: the supplement of paper PMC3334620
